31 molecules from paper PMC9911399, “Two distinct binding modes provide the RNA-binding protein RbFox with extraordinary sequence specificity” can be followed below.

Substitutions are numbered along the chain they refer to; changes in the protein carry UniProt numbers. Some of the results follow.

Sequences and labels used below:
T1: RBFOX1 RRM (Homo sapiens, UniProt Q9NWB1 109-208)
T1 sequence: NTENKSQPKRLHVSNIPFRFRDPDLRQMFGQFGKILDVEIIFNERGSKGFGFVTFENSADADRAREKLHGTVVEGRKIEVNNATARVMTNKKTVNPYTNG

B1: UCUCGUA (DNA:RNA)
RNA: GGGAGACCGGAAUUCAGAUUGUCCUCUCGUAUUAAAUCCCGUCGUAGCCACCA
DNA 1: CAATCTGAATTCCGGTCTCCC
DNA 2: TGGTGGCTACGACGGGATT
B2: CGCAUGG (DNA:RNA)
RNA: GGGAGACCGGAAUUCAGAUUGUCCCGCAUGGUUAAAUCCCGUCGUAGCCACCA
DNA 1: CAATCTGAATTCCGGTCTCCC
DNA 2: TGGTGGCTACGACGGGATT
B3: AGGCGUC (DNA:RNA)
RNA: B1 RNA with U25A, C26G, U27G, A31C
DNA 1: CAATCTGAATTCCGGTCTCCC
DNA 2: TGGTGGCTACGACGGGATT
B4: AAACCGU (DNA:RNA)
RNA: B2 RNA with C25A, G26A, C27A, A28C, U29C, G31U
DNA 1: CAATCTGAATTCCGGTCTCCC
DNA 2: TGGTGGCTACGACGGGATT
B5: UCCGCGG (DNA:RNA)
RNA: B2 RNA with C25U, G26C, A28G, U29C
DNA 1: CAATCTGAATTCCGGTCTCCC
DNA 2: TGGTGGCTACGACGGGATT
B6: UGUUGGC (DNA:RNA)
RNA: B1 RNA with C26G, C28U, U30G, A31C
DNA 1: CAATCTGAATTCCGGTCTCCC
DNA 2: TGGTGGCTACGACGGGATT
B7: ACAAAAG (DNA:RNA)
RNA: B2 RNA with C25A, G26C, C27A, U29A, G30A
DNA 1: CAATCTGAATTCCGGTCTCCC
DNA 2: TGGTGGCTACGACGGGATT
B8: AUUGAGC (DNA:RNA)
RNA: B2 RNA with C25A, G26U, C27U, A28G, U29A, G31C
DNA 1: CAATCTGAATTCCGGTCTCCC
DNA 2: TGGTGGCTACGACGGGATT
B9: AGUGCGA (DNA:RNA)
RNA: B2 RNA with C25A, C27U, A28G, U29C, G31A
DNA 1: CAATCTGAATTCCGGTCTCCC
DNA 2: TGGTGGCTACGACGGGATT
B10: UACCACU (DNA:RNA)
RNA: B1 RNA with C26A, U27C, G29A, U30C, A31U
DNA 1: CAATCTGAATTCCGGTCTCCC
DNA 2: TGGTGGCTACGACGGGATT
B11: GCCCUUG (DNA:RNA)
RNA: B2 RNA with C25G, G26C, A28C, G30U
DNA 1: CAATCTGAATTCCGGTCTCCC
DNA 2: TGGTGGCTACGACGGGATT
B12: GUCCUAG (DNA:RNA)
RNA: B2 RNA with C25G, G26U, A28C, G30A
DNA 1: CAATCTGAATTCCGGTCTCCC
DNA 2: TGGTGGCTACGACGGGATT
B13: AGUAAAG (DNA:RNA)
RNA: B2 RNA with C25A, C27U, U29A, G30A
DNA 1: CAATCTGAATTCCGGTCTCCC
DNA 2: TGGTGGCTACGACGGGATT
B14: UAGGUAG (DNA:RNA)
RNA: B2 RNA with C25U, G26A, C27G, A28G, G30A
DNA 1: CAATCTGAATTCCGGTCTCCC
DNA 2: TGGTGGCTACGACGGGATT
B15: AGAAUCU (DNA:RNA)
RNA: B2 RNA with C25A, C27A, G30C, G31U
DNA 1: CAATCTGAATTCCGGTCTCCC
DNA 2: TGGTGGCTACGACGGGATT
B16: GGGGCUG (DNA:RNA)
RNA: B2 RNA with C25G, C27G, A28G, U29C, G30U
DNA 1: CAATCTGAATTCCGGTCTCCC
DNA 2: TGGTGGCTACGACGGGATT
B17: GCGGUGU (DNA:RNA)
RNA: B2 RNA with C25G, G26C, C27G, A28G, G31U
DNA 1: CAATCTGAATTCCGGTCTCCC
DNA 2: TGGTGGCTACGACGGGATT
B18: AAGCCCA (DNA:RNA)
RNA: B1 RNA with U25A, C26A, U27G, G29C, U30C
DNA 1: CAATCTGAATTCCGGTCTCCC
DNA 2: TGGTGGCTACGACGGGATT
B19: GUCGCUU (DNA:RNA)
RNA: B2 RNA with C25G, G26U, A28G, U29C, G30U, G31U
DNA 1: CAATCTGAATTCCGGTCTCCC
DNA 2: TGGTGGCTACGACGGGATT
B20: CUCCAAC (DNA:RNA)
RNA: B2 RNA with G26U, A28C, U29A, G30A, G31C
DNA 1: CAATCTGAATTCCGGTCTCCC
DNA 2: TGGTGGCTACGACGGGATT
B21: UGCGUUC (DNA:RNA)
RNA: B2 RNA with C25U, A28G, G30U, G31C
DNA 1: CAATCTGAATTCCGGTCTCCC
DNA 2: TGGTGGCTACGACGGGATT
B22: CCUUAUC (DNA:RNA)
RNA: B1 RNA with U25C, C28U, G29A, A31C
DNA 1: CAATCTGAATTCCGGTCTCCC
DNA 2: TGGTGGCTACGACGGGATT
B23: UGGCAUC (DNA:RNA)
RNA: B1 RNA with C26G, U27G, G29A, A31C
DNA 1: CAATCTGAATTCCGGTCTCCC
DNA 2: TGGTGGCTACGACGGGATT
B24: AGAUAUG (DNA:RNA)
RNA: B2 RNA with C25A, C27A, A28U, U29A, G30U
DNA 1: CAATCTGAATTCCGGTCTCCC
DNA 2: TGGTGGCTACGACGGGATT
B25: GUCGAUU (DNA:RNA)
RNA: B2 RNA with C25G, G26U, A28G, U29A, G30U, G31U
DNA 1: CAATCTGAATTCCGGTCTCCC
DNA 2: TGGTGGCTACGACGGGATT
B26: AAAGCGG (DNA:RNA)
RNA: B2 RNA with C25A, G26A, C27A, A28G, U29C
DNA 1: CAATCTGAATTCCGGTCTCCC
DNA 2: TGGTGGCTACGACGGGATT
B27: UGAAUUG (DNA:RNA)
RNA: B2 RNA with C25U, C27A, G30U
DNA 1: CAATCTGAATTCCGGTCTCCC
DNA 2: TGGTGGCTACGACGGGATT
B28: CUAAGUG (DNA:RNA)
RNA: B2 RNA with G26U, C27A, U29G, G30U
DNA 1: CAATCTGAATTCCGGTCTCCC
DNA 2: TGGTGGCTACGACGGGATT
B29: UUUCUGU (DNA:RNA)
RNA: B1 RNA with C26U, G29U, U30G, A31U
DNA 1: CAATCTGAATTCCGGTCTCCC
DNA 2: TGGTGGCTACGACGGGATT
B30: UGCGAAA (DNA:RNA)
RNA: B2 RNA with C25U, A28G, U29A, G30A, G31A
DNA 1: CAATCTGAATTCCGGTCTCCC
DNA 2: TGGTGGCTACGACGGGATT
B31: UCUUCAU (DNA:RNA)
RNA: B1 RNA with C28U, G29C, U30A, A31U
DNA 1: CAATCTGAATTCCGGTCTCCC
DNA 2: TGGTGGCTACGACGGGATT

The experiment has as its target T1, RBFOX1 RRM. The experiment can be described thus: EMSA; HiTS-Eq, 1 nM pool, 10 min; buffer printed only for the single-RNA assays: 10 mM Tris pH 7.5, 150 mM NaCl, 3.4 mM EDTA, 0.001% NP-40, 30 C. To be noted: tags: His6 N-terminal (pET28a); label: 5' 32P. Put shortly:
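These values rest on relative association constants, computed from read-count changes of each RNA species versus the control reaction and normalised to the cognate motif. Reads came from free RNA recovered by 8% native PAGE after purified RbFox RRM (wild type or mutant) at increasing concentrations was equilibrated for 10 min in 50 µL with 1 nM of a 5′-radiolabelled pool with 7 randomized nucleotides and DNA-annealed flanks.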
On the technique in general: Mobility shift assays separate free from complexed probe on a gel.
In the case of B1, the binding signal is 0.00944 KA relative to UGCAUGU.

With B2, the binding signal was 0.582 KA relative to UGCAUGU.

Turning to B3, the binding signal is 0.0131 KA relative to UGCAUGU.

Consider B4, for which the binding signal was 0.00107 KA relative to UGCAUGU.

Consider B5, for which the binding signal is 0.0131 KA relative to UGCAUGU.

As to B6, the binding signal was 0.0228 KA relative to UGCAUGU.

As for B7, the binding signal is 0.00155 KA relative to UGCAUGU.

Turning to B8, the binding signal is 0.0114 KA relative to UGCAUGU.

On to B9, for which the binding signal was 0.0129 KA relative to UGCAUGU.

As for B10, the binding signal is 0.00168 KA relative to UGCAUGU.

For the molecule B11, the binding signal is 0.0146 KA relative to UGCAUGU.

Regarding B12, the binding signal is 0.0105 KA relative to UGCAUGU.

Consider B13, for which the binding signal is 0.0111 KA relative to UGCAUGU.

In the case of B14, the binding signal is 0.0143 KA relative to UGCAUGU.

Turning to B15, the binding signal is 0.00546 KA relative to UGCAUGU.

In the case of B16, the binding signal was 0.0461 KA relative to UGCAUGU.

On to B17, for which the binding signal was 0.0224 KA relative to UGCAUGU.

Turning to B18, the binding signal was 0.00111 KA relative to UGCAUGU.

As for B19, the binding signal is 0.0147 KA relative to UGCAUGU.

On to B20, for which the binding signal is 0.00422 KA relative to UGCAUGU.

For B21, the binding signal was 0.0184 KA relative to UGCAUGU.

On to B22, for which the binding signal is 0.00182 KA relative to UGCAUGU.

For B23, the binding signal is 0.0211 KA relative to UGCAUGU.

With B24, the binding signal was 0.0123 KA relative to UGCAUGU.

Turning to B25, the binding signal is 0.0144 KA relative to UGCAUGU.

Regarding B26, the binding signal is 0.00783 KA relative to UGCAUGU.

As for B27, the binding signal was 0.0261 KA relative to UGCAUGU.

For B28, the binding signal is 0.0128 KA relative to UGCAUGU.

B29: the binding signal is 0.021 KA relative to UGCAUGU.

With B30, the binding signal was 0.0155 KA relative to UGCAUGU.

On to B31, for which the binding signal was 0.0051 KA relative to UGCAUGU.
